The whole screen tested about 410,000 compounds, of which about 5,000 (1.2%) were called active. This list was built around the results that the source calls inconclusive (neither active nor inactive); the mix of calls is not that of the screen. Calls come from the whole dose curve; as a rule, active = well fitted inhibition curve with a large enough effect; inconclusive = small, poorly fitted or top-dose-only effect; inactive = no such curve, though single readings can be large or run the other way. Where the call is inconclusive, the potency comes from a doubtful curve fit.
assay: qHTS for Inhibitors of TGF-b; conditions: HepG2 CAGA-GFP TGF-b/SMAD3 reporter, GFP fluorescence, 18 h, TGF-beta stimulated, 500 pg/mL final; series mostly up to 46.1 µM; activity, negative = inhibition: at the top concentration; note: nearly all actives have a fitted effect of over 65% in size
Method in brief: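 HEPG2 CAGA-GFP, 1000 cells/well; 2 h settle, 37 C; cpd via pin tool; TGF-b 500 pg/mL final; 18 h, 37 C; GFP imaging ex488/em500-530; %Activity normalised to -TGF-b and +DMSO controls; CRC fit, curve class.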
% is set by controls: 0 for no effect and ±100 for the full control effect; potency is the fitted concentration of half-maximal effect; tags give direction and shape of the fitted curve.

| Structure (SMILES) | Potency | activity, negative = inhibition |
| --- | --- | --- |
| O=C(c1cccs1)N1CCN(S(=O)(=O)Cc2ccccc2)CC1 | inconclusive: 35.5 µM [inhibitor, single point] |  |
| CC(Nc1nc(N2CCNCC2)nc2ccccc12)c1ccccc1 (configuration not stated) | inconclusive: 14.1 µM [inhibitor, partial curve, poor fit] |  |
| Oc1ccc(-c2n[nH]c(C(F)(F)F)c2-c2ccccc2)c(O)c1 | inconclusive: 15.8 µM [inhibitor, single point] |  |
| N#C/C(=N\Nc1cccc(Cl)c1)C(=O)c1ccccc1 | inconclusive: 12.6 µM [inhibitor, partial curve] |  |
| COc1ccc(C(=O)NC2(C(F)(F)F)NC(=O)N(CCCc3ccccc3)C2=O)cc1OC (configuration not stated) | inconclusive: 7.94 µM [inhibitor, partial curve, poor fit] |  |
| CC1CCC(NC(=O)CCc2cn(Cc3ccc(F)cc3)c3ccccc23)CC1 (configuration not stated) | inconclusive: 4.47 µM [inhibitor, partial curve, poor fit] |  |
| Oc1cccc(C(=S)N2CCC(Cc3ccccc3)CC2)c1 | inconclusive: 35.5 µM [inhibitor, single point] |  |
| O=C(c1ccc([N+](=O)[O-])o1)N1CCN(c2nc3c(Cl)cccc3s2)CC1 | inconclusive: 22.4 µM [inhibitor, partial curve, poor fit] |  |
| O=C(O)Cn1nc(N2CCN(c3ccccc3)CC2)ccc1=O |  | inactive: -6.01% |
| CCc1cccc(CC)c1NC(=O)CSc1nc2ccc(N3C(=O)C4C5C=CC(C5)C4C3=O)cc2s1 (configuration not stated) | inconclusive: 22.4 µM [inhibitor, partial curve, poor fit] |  |
| COc1ccc2ccc(O)c(CN3CCN(S(=O)(=O)c4cccc(C(F)(F)F)c4)CC3)c2c1 | inconclusive: 17.8 µM [inhibitor, single point] |  |
| C=C1c2cccc(OC)c2O[C@H](C(=O)OCC)[C@@H]1CC(CC)CCCC (some centres not stated) | inconclusive: 22.4 µM [inhibitor, single point] |  |
| CCc1cccc(NC(=O)c2ccc(Br)o2)c1 |  | inactive: 2.82% |
| CC(/C=C1\SC(=S)N(CCCC(=O)Nc2ccc(C(=O)O)cc2)C1=O)=C\c1ccccc1 |  | inactive: -0.384% |
| CCOC(=O)C1=C[C@@H](C(C)(C)C)N(S(=O)(=O)c2ccc(C)cc2)[C@H]1c1ccccc1Cl | inconclusive: 10 µM [inhibitor, partial curve] |  |
| COc1ccc(Cc2c(-c3cccc(Cl)c3)nc3c(C)cc(Br)cn23)c(C)c1 | inconclusive: 28.2 µM [inhibitor, single point] |  |
| Cc1[nH]nc(-c2ccc(O)cc2O)c1Oc1ccccc1 | inconclusive: 35.5 µM [inhibitor, single point] |  |
| CCS(=O)(=O)c1ccc(N=Nc2ccc(O)c3ncccc23)c(OC)c1 | inconclusive: 35.5 µM [inhibitor, single point] |  |
| COc1cc(CN2CCN(CCCc3ccccc3)C(CCO)C2)cc(OC)c1O (configuration not stated) |  | inactive: -4.29% |
| COc1ccc(COc2ncnc3ccc(Br)cc23)cc1F |  | inactive: -12.9% |
| CC(=O)Nc1cccc(-c2csc(Nc3ccc(C)cn3)n2)c1 | inconclusive: 11.2 µM [inhibitor, partial curve, poor fit] |  |
| CCOc1ccccc1N(CC)C(=O)c1cc2ccc3cccnc3c2[nH]1 | inconclusive: 12.6 µM [inhibitor, partial curve, poor fit] |  |
| Cn1c2ccc(F)cc2c2nnc(SCCN3CCCCC3)nc21 | inactive |  |

| Structure (SMILES) | Potency | activity, negative = inhibition |
| --- | --- | --- |
| CCOc1ccc(NC(=O)CSc2nc3ccccc3nc2N2CC(C)OC(C)C2)cc1 (configuration not stated) |  | inactive: 0.169% |
| CCOC(=O)c1c(S(=O)(=O)N2CCCC(C)C2)c(C)n(C)c1C (configuration not stated) |  | inactive: 10.6% |
| Cc1ccc(NC(=O)C(C)OC(=O)Cn2cnc3ccccc3c2=O)cc1 (configuration not stated) |  | inactive: -0.773% |
| CCOc1ccccc1NC(=O)CN1C(=O)C(=O)c2ccccc21 | inconclusive: 8.91 µM [inhibitor, single point] |  |
| COc1ccc(OC)c(CNn2c(-c3cccc(C)c3)nc3ccccc3c2=O)c1 |  | inactive: -5.85% |
| COc1ccc(C2CC(c3ccccc3)=NN2C(=S)Nc2ccccc2)cc1 (configuration not stated) |  | inactive: 0.0587% |
| O=C(NCCCN1CCN(c2cccc(Cl)c2)CC1)c1nnc(Cc2ccc(F)cc2Cl)o1 | active: 10 µM |  |
| Cc1ccc(N2C(=O)C(CC(=O)Nc3ccccc3)N(CCC3=CCCCC3)C2=O)cc1 (configuration not stated) | inconclusive: 35.5 µM [inhibitor, single point] |  |
| CCn1c2ccccc2c2cc(NC(=O)CNCc3ccccc3OC)ccc21 | inconclusive: 14.1 µM [inhibitor, single point] |  |
| CC(C)Cn1c(CN(Cc2ccccc2)Cc2ccccc2)nc2c1c(=O)n(C)c(=O)n2C | inconclusive: 35.5 µM [inhibitor, single point] |  |
| CCCn1c(SCC(=O)Nc2ccc(NC(=O)CC)cc2)nc2c1c(=O)n(C)c(=O)n2C |  | inactive: 2.05% |
| Cc1ccccc1NC1=C/C(=N\S(=O)(=O)c2cccs2)c2ccccc2C1=O | inconclusive: 3.98 µM [inhibitor, partial curve, poor fit] |  |
| CCOP(=O)(c1ccc(N(C)C)cc1)C(O)c1ccc(Cl)cc1 (configuration not stated) | inconclusive: 5.62 µM [inhibitor, single point] |  |
| CCc1cccc(C)c1N(C(=O)Cn1c(=O)[nH]c2ccccc21)C(C)COC (configuration not stated) | inconclusive: 3.16 µM [inhibitor, partial curve, poor fit] |  |
| COc1ccc(OCC(=O)N/N=C/c2ccc(OC)c(OC)c2C(=O)O)cc1 | inconclusive: 35.5 µM [inhibitor, single point] |  |
| CCO[C@@H]1OC(C(=O)NCc2nc3ccccc3[nH]2)=C[C@H](C2CCCCC2)[C@H]1CCCO | inconclusive: 0.224 µM [inhibitor, full curve, poor fit] |  |
| O=C(CCS(=O)(=O)c1nc(-c2cccs2)cc(C(F)(F)F)n1)Nc1cccc(O)c1 | inconclusive: 5.01 µM [inhibitor, full curve, poor fit] |  |
| CCOc1ccc(-c2csc(/C(C#N)=C\c3ccc(O)c([N+](=O)[O-])c3)n2)cc1 | active: 5.01 µM |  |
| COc1ccc(NC(=S)NC(NC(=O)c2cccc3ccccc23)C(Cl)(Cl)Cl)c([N+](=O)[O-])c1 (configuration not stated) | inconclusive: 17.8 µM [inhibitor, single point] |  |
| COc1ccc(C(=S)N2CCN(c3cccc(Cl)c3)CC2)c(OC)c1 | inconclusive: 10 µM [inhibitor, partial curve] |  |
| CCC(C)c1ccccc1NC(=O)C(C)N(C)Cc1cccc(OC)c1 (configuration not stated) | inconclusive: 35.5 µM [inhibitor, single point] |  |
| CCc1nc2ccc(C(=O)N(C)CCN(C)C)cn2c1N(C)CCC(C)C |  | inactive: -4% |
| CC(=O)N1CCN(C(=O)CCCNC(=O)c2ccc(Cl)cc2)CC1 |  | inactive: 1.39% |

| Structure (SMILES) | Potency | activity, negative = inhibition |
| --- | --- | --- |
| CC12CCC(/C(=C/NNc3ccc([N+](=O)[O-])cc3[N+](=O)[O-])C1=O)C2(C)C (configuration not stated) | inconclusive: 35.5 µM [inhibitor, single point] |  |
| CCOc1ccccc1NC(=O)COC(=O)c1ccccc1SCC(=O)N1CCCC1 |  | inactive: 27.1% |
| CC1CC(C)CN(S(=O)(=O)c2ccc(NC(=O)CCNC(=O)c3ccc([N+](=O)[O-])cc3)cc2)C1 (configuration not stated) | inconclusive: 15.8 µM [inhibitor, single point] |  |
| O=C(CCNC(=O)c1ccccc1)Nc1nc2ccccc2s1 | inconclusive: 35.5 µM [inhibitor, single point] |  |
| CN(Cc1ccccc1)C1=CC(=[N+]2CCCC2)CC(C)(C)C1 | inconclusive: 10 µM [inhibitor, partial curve, poor fit] |  |
| CC1(C(=O)NCc2ccc(C(F)(F)F)cc2)CCN1C1Cc2ccccc2C1 (configuration not stated) | inconclusive: 11.2 µM [inhibitor, partial curve] |  |
| O=Cc1cc(N=Nc2ccccc2Cl)ccc1O | inconclusive: 35.5 µM [inhibitor, single point] |  |
| CCOC(=O)N1CCC(NCCNC(=O)c2cccc(F)c2)CC1 |  | inactive: 8.07% |
| Cc1ccc(S(=O)(=O)N2CCOCC2)cc1NC(=O)c1cc(-c2ccccn2)nc2ccccc12 | inconclusive: 35.5 µM [inhibitor, single point] |  |
| CCc1ccc(-n2nc(CO)c(C(=O)NCCCCc3ccccc3)n2)cc1 | inconclusive: 8.91 µM [inhibitor, partial curve, poor fit] |  |
| Cc1nc2ccccc2c2c1CC(C(C)(Cl)Br)O2 (configuration not stated) |  | inactive: -27.3% |
| CC1(C(=O)NS(=O)(=O)c2ccccc2Cl)CCN1C(=O)c1cccc(F)c1 (configuration not stated) | inconclusive: 25.1 µM [inhibitor, partial curve, poor fit] |  |
| Cc1ccc(C(=O)NC(=S)N2CCN(C)CC2)cc1 |  | inactive: -0.516% |
| NS(=O)(=O)c1ccc(NC2=CC(=O)C(=O)c3ccccc32)cc1 | active: 8.91 µM |  |
| Cc1cn2c(=O)cc(COC(=O)C(C)Oc3ccccc3)nc2s1 (configuration not stated) | inconclusive: 0.794 µM [inhibitor, full curve, poor fit] |  |
| Cc1cc(C(=O)CCC(=O)Nc2ncccc2O)c(C)s1 | inconclusive: 5.62 µM [inhibitor, partial curve, poor fit] |  |
| COc1cccc(N2CCN(C(=O)CCCCCNc3nc(=S)[nH]c4ccccc34)CC2)c1 | inconclusive: 15.8 µM [inhibitor, single point] |  |
| Cc1ccc(C)c(CN2C(=O)C(O)(c3c[nH]c4ccccc34)c3ccccc32)c1 (configuration not stated) | inconclusive: 11.2 µM [inhibitor, partial curve] |  |
| COc1ccccc1-c1cnn2c(NC3CCCC3)cc(C)nc12 |  | inactive: -9.81% |
| Cc1cc(=O)oc2c3c(cc(OCC(=O)NCc4cccnc4)c12)OC(C)(C)CC3 |  | inactive: 0.102% |
| CCc1cc2c(Sc3nc4ccccc4s3)ncnc2s1 |  | inactive: 0% |

Source: PubChem BioAssay AID588855 (National Center for Advancing Translational Sciences (NCATS), 2011)
